Publication PMC10726135
The other results are listed elsewhere or left out. At the low end of the ranking the order means little. Measured with an extract: partners may take part in the binding.

The sequences below were run against T1, HNF4alpha8 (COS-7 nuclear extract) (UniProt P41235-5) (assay: protein-binding microarray). Settings: COS-7 nuclear extract on double-stranded Agilent 4x180k PBM; binding buffer, salt, pH and temperature not given; high values mean tight binding; double strand, one strand shown; sequences stand for … in …GCCTAGGGAGATTAGAGTATCGGTCGA.
T1 sequence: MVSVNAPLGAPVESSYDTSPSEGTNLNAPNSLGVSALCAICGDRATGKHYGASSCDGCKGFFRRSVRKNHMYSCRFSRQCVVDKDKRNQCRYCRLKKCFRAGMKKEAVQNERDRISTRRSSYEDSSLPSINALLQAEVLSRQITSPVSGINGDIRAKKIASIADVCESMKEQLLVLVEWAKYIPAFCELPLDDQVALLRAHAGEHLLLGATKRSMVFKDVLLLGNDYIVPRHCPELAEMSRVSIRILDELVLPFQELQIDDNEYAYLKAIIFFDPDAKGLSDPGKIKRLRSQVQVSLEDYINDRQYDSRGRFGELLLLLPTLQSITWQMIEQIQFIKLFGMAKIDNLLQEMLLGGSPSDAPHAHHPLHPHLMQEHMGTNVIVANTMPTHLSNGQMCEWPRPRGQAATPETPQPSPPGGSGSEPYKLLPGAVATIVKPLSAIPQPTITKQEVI
ACTGGGGTGGAGATGCCGTCGGCACACACG gave a binding signal (log2 normalized intensity) of -1.29. With TTCACTTTCTCTTATAGCTCAACCCCCAAA the binding signal (log2 normalized intensity) was 5.33. With GCTGGTTTGCCATTTGGAGAGAGTTTGGCC the binding signal (log2 normalized intensity) was 1.76. TAGGAATTCCAAGAAGGCAGACTCAAGATA gave a binding signal (log2 normalized intensity) of -1.33. With AAAAGTAGCTGTTGGAATTTGGTCACAGAA the binding signal (log2 normalized intensity) was 2.96. Sequence TTGCCCTTAAGCAGCATGTAGTTTAGTTGG has a binding signal (log2 normalized intensity) of 2.38. Sequence GGGGGACTTCAAAAGCCGGGGAAAGGGAAA has a binding signal (log2 normalized intensity) of -1.28. CTGGGTTCCAAAAGGCACATAGATTCCCAG gave a binding signal (log2 normalized intensity) of -1.28. With TATTTGGATAATGTGCCCTTTGTACCTGGG the binding signal (log2 normalized intensity) was 7.72. TTCGGGAGACATGTGGCCTTTGGTACAGGG showed a binding signal (log2 normalized intensity) of 3.19. For GTGACTCTAGGAACCTTTCTCCATACCTCT, the binding signal (log2 normalized intensity) was -0.874. Sequence AGAGGGTTAACCCCTATTAACCAAAGCTAC has a binding signal (log2 normalized intensity) of -1.16. For CCTTGTTGCCCACCCCCCAAGTAGAGAGCA, the binding signal (log2 normalized intensity) was 5.1. CCAGTCAGAATCTCTCTGTAGGTAAAGACT showed a binding signal (log2 normalized intensity) of -0.917. CTCTTTCTAGGTCACCACCTTTTTTGGCCT was tested, and the binding signal (log2 normalized intensity) was 1.73. GTGTGCAATTAGAGCAAAGGTTACTGCAGA was tested, and the binding signal (log2 normalized intensity) was 3. GTCAAAGGGTACAAATTCCAGAGAGGGGCC was tested, and the binding signal (log2 normalized intensity) was 1.93. Sequence AATAATAGTTGACCTTTGAGAACCTCCCAT has a binding signal (log2 normalized intensity) of 4.66. TCTAGAGTCTGACTACTTCTCACCACCTCT showed a binding signal (log2 normalized intensity) of -1.25. With ATGCCTCACCTGGCAAGGCAGCCTCAGCCA the binding signal (log2 normalized intensity) was -1.23. For AGGGGCAGGGTTCACATAGCCACCAGGGCC, the binding signal (log2 normalized intensity) was 0.88. CCCTCAGCAAACCTTCTGGCAGTGGGAGTA showed a binding signal (log2 normalized intensity) of -1.32. ATTAACCTTTGAGCTGGGTGGCCCTCTCCC was tested, and the binding signal (log2 normalized intensity) was 3.57. For TTGGACATGTAACTGCTATTGGTTGTCAGA, the binding signal (log2 normalized intensity) was 1. In the case of GTGAATAGCACTGACCAGCTCCAAAGTCCG, the binding signal (log2 normalized intensity) is reported as 3.71. For AGAACCTTGGAGGCGGCGGCTCCGGGAGCT, the binding signal (log2 normalized intensity) was -1.31. For CTGTCCATCTTTTGCCCCTCTTATGCCCCT, the binding signal (log2 normalized intensity) was 5.51. CTCTCCCCAGTTCAAAGGTTAAGACTTTGA gave a binding signal (log2 normalized intensity) of 5.44. GGAATCCTCCTAAGTAGCCAAGATTACAGC gave a binding signal (log2 normalized intensity) of -1.3. GACCCTGGCCGGAAACTCCGCCCCATTGTC showed a binding signal (log2 normalized intensity) of 2.04. Work on GCAGGTAGGGGTGGGATGGGGAGCAGTGGG yielded a binding signal (log2 normalized intensity) of -1.44. TAAAGCAGAGGGCTGCTTGCAGGAGGCCGG showed a binding signal (log2 normalized intensity) of -1.37. With GTGACCCGTGACCCTCAGGAACCAAGCATT the binding signal (log2 normalized intensity) was 1.9. In the case of TGAGATAGGAGGTCAGCACAAGATACAGCT, the binding signal (log2 normalized intensity) is reported as -1.3. In the case of GTTCCTGCCTGGAGCCACTGAAGTGAGTTA, the binding signal (log2 normalized intensity) is reported as -0.757. Work on GGAGAGAAAAGCAAGATTGGGAGCTGGGAG yielded a binding signal (log2 normalized intensity) of -1.36. GGAGGTTATCTTGGGGCTAATGTCTCTCTG showed a binding signal (log2 normalized intensity) of 1.1. For TGTTTATCTTACAGGCTTATACGTGGAAGA, the binding signal (log2 normalized intensity) was 0.663. With TTTCAGTGCCCTCATAAGAGACTTTGCCCT the binding signal (log2 normalized intensity) was 7.15. GTAGCTTCAAACCAGTTATTCCAAGATCCA gave a binding signal (log2 normalized intensity) of -1.15. Sequence TTTCTCCTCTCTGGGCTTCCATTGTGATTC has a binding signal (log2 normalized intensity) of 0.00881. For GGGTCAAAGCCCAGGAGAGCAAAAAGGGCC, the binding signal (log2 normalized intensity) was -1.3. GTGTTTATAAAGTTGGGAAAAGTAACACAG gave a binding signal (log2 normalized intensity) of 0.696. For TTCAGTCTAAATGATGGCCAGGGAGTACAC, the binding signal (log2 normalized intensity) was 1.22. With CCGGACTCTGCCCCACAATTCTTGGATCTC the binding signal (log2 normalized intensity) was 1.97. TCATGGGCCAAAGTTTGTTTCTTATCACAC gave a binding signal (log2 normalized intensity) of 1.4. Sequence ACCTTTGTTCACATTTGTGCTCAGCCAACA has a binding signal (log2 normalized intensity) of 0.549.
